In the supplement of paper PMC4967469:
pIC50: −log10 of the molar value. By IC50 is meant the dose at which the fit gives 50% viability; a limit (>, <) means that the fit lies beyond the doses tested. AUC sums up the same curve from the lowest dose to the 256-fold higher top dose: 1 means no effect, lower means more sensitive. For some assays here: Where the top dose is marked as inferred, it was calculated from the reported fits.

Columns and labels:
Test in all cases: Viability of human cancer cell lines after 72 h of drug (GDSC screen)
Dabrafenib = compound: CC(C)(C)c1nc(-c2cccc(NS(=O)(=O)c3c(F)cccc3F)c2F)c(-c2ccnc(N)n2)s1 [Dabrafenib]; conditions: top dose 10 µM
Description: (§1)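 Human cancer cell lines in 384-well plates, medium with 10% serum, drug for 72 h over a 256-fold dose range (nine 2-fold or five 4-fold steps up to the top dose). Adherent lines were fixed and stained with the nucleic acid dye Syto60, suspension lines read with resazurin; signal relative to control wells, capped at 0 and 100%. One two-parameter sigmoid per drug and line, fitted in a mixed model over all curves with the slope shared within a line.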

SN-38 = compound: CCc1c2c(nc3ccc(O)cc13)-c1cc3c(c(=O)n1C2)COC(=O)[C@]3(O)CC [SN-38]; conditions: top dose 0.05 µM; top dose inferred
Description: as §1

Methotrexate = compound: CN(Cc1cnc2nc(N)nc(N)c2n1)c1ccc(C(=O)N[C@@H](CCC(=O)O)C(=O)O)cc1 [Methotrexate]; conditions: top dose 0.2 µM
Description: as §1

Axitinib = compound: CNC(=O)c1ccccc1Sc1ccc2c(/C=C/c3ccccn3)n[nH]c2c1 [Axitinib]; conditions: top dose 2 µM
Description: as §1

Vorinostat = compound: O=C(CCCCCCC(=O)Nc1ccccc1)NO [Vorinostat]; conditions: top dose 10 µM
Description: as §1

Cell Line | AUC (Dabrafenib) | pIC50 (Dabrafenib) | AUC (SN-38) | pIC50 (SN-38) | AUC (Methotrexate) | pIC50 (Methotrexate) | AUC (Axitinib) | pIC50 (Axitinib) | AUC (Vorinostat) | pIC50 (Vorinostat)
LN-405 (glioma, adherent) | 0.977 | < 5.00 | 0.947 | < 7.30 | 0.982 | < 6.70 | 0.984 | < 5.70 | 0.783 | 5.27
LNZTA3WT4 (glioma, adherent) | 0.966 | < 5.00 | 0.651 | 8.09 | 0.913 | < 6.70 | 0.943 | < 5.70 | 0.766 | 5.44
LOU-NH91 (lung squamous cell carcinoma, adherent) | 0.744 | 5.47 | 0.666 | 8.02 | 0.986 | < 6.70 | 0.956 | < 5.70 | 0.776 | 5.36
LOUCY (T-cell lymphoblastic leukaemia, suspension) | 0.97 | < 5.00 | 0.879 | 7.45 | 0.99 | < 6.70 | 0.983 | < 5.70 | 0.462 | 6.30
LS-123 (large intestine, adherent) | 0.958 | < 5.00 | 0.931 | < 7.30 | 0.974 | < 6.70 | 0.981 | < 5.70 | 0.778 | 5.26
LS-180 (large intestine, adherent) | 0.972 | < 5.00 | 0.42 | 8.74 | 0.964 | < 6.70 | 0.978 | < 5.70 | 0.909 | < 5.00
LS-513 (large intestine, adherent) | 0.975 | < 5.00 | 0.708 | 7.91 | 0.94 | < 6.70 | 0.936 | < 5.70 | 0.758 | 5.44
LS-1034 (large intestine, adherent) | 0.985 | < 5.00 | 0.861 | 7.30 | 0.972 | < 6.70 | 0.975 | < 5.70 | 0.871 | < 5.00
LU-65 (large cell lung carcinoma, suspension) | 0.981 | < 5.00 | 0.977 | < 7.30 | 0.987 | < 6.70 | 0.987 | < 5.70 | 0.986 | < 5.00
LU-134-A (small cell lung carcinoma, suspension) | 0.975 | < 5.00 | 0.634 | 8.12 | 0.922 | < 6.70 | 0.97 | < 5.70 | 0.686 | 5.67
LU-135 (small cell lung carcinoma, suspension) | 0.992 | < 5.00 | 0.878 | 7.44 | 0.465 | 7.99 | 0.887 | 5.80 | 0.612 | 5.92
LU-139 (small cell lung carcinoma, suspension) | 0.977 | < 5.00 | 0.877 | < 7.30 | 0.859 | < 6.70 | 0.966 | < 5.70 | 0.546 | 6.06
LU-165 (small cell lung carcinoma, suspension) | 0.938 | < 5.00 | 0.87 | < 7.30 | 0.955 | < 6.70 | 0.985 | < 5.70 | 0.987 | < 5.00
LXF-289 (lung adenocarcinoma, adherent) | 0.961 | < 5.00 | 0.682 | 8.00 | 0.985 | < 6.70 | 0.856 | 5.80 | 0.67 | 5.73
M059J (glioma, adherent) | 0.976 | < 5.00 | 0.654 | 8.06 | 0.985 | < 6.70 | 0.967 | < 5.70 | 0.823 | 5.18
MC-CAR (haematopoietic neoplasm, suspension) | 0.916 | < 5.00 | 0.753 | 7.82 | 0.781 | 7.13 | 0.868 | 5.82 | 0.561 | 6.05
MC-IXC (neuroblastoma, adherent) | 0.996 | < 5.00 | 0.093 | 9.56 | 0.995 | < 6.70 | 0.988 | < 5.70 | 0.642 | 5.86
MDA-MB-330 (breast, adherent) | 0.94 | < 5.00 | 0.949 | < 7.30 | 0.978 | < 6.70 | 0.963 | < 5.70 | 0.609 | 5.89
MDA-MB-415 (breast, adherent) | 0.97 | < 5.00 | 0.842 | < 7.30 | 0.98 | < 6.70 | 0.937 | < 5.70 | 0.832 | 5.01
MDST8 (large intestine, adherent) | 0.196 | 7.10 | 0.539 | 8.40 | 0.783 | 7.08 | 0.937 | < 5.70 | 0.738 | 5.53
MEL-JUSO (melanoma, adherent) | 0.912 | < 5.00 | 0.666 | 8.02 | 0.969 | < 6.70 | 0.93 | < 5.70 | 0.782 | 5.33
MES-SA (uterus, adherent) | 0.942 | < 5.00 | 0.696 | 8.00 | 0.806 | 7.07 | 0.92 | < 5.70 | 0.755 | 5.53
MFE-280 (endometrium, adherent) | 0.979 | < 5.00 | 0.927 | < 7.30 | 0.976 | < 6.70 | 0.964 | < 5.70 | 0.803 | 5.18
MFE-296 (endometrium, adherent) | 0.92 | < 5.00 | 0.487 | 8.54 | 0.975 | < 6.70 | 0.848 | 5.78 | 0.759 | 5.43
MFH-ino (soft tissue, adherent) | 0.972 | < 5.00 | 0.416 | 8.75 | 0.981 | < 6.70 | 0.899 | < 5.70 | 0.668 | 5.70

Cell Line | AUC (Dabrafenib) | pIC50 (Dabrafenib) | AUC (SN-38) | pIC50 (SN-38) | AUC (Methotrexate) | pIC50 (Methotrexate) | AUC (Axitinib) | pIC50 (Axitinib) | AUC (Vorinostat) | pIC50 (Vorinostat)
MFM-223 (breast, adherent) | 0.957 | < 5.00 | 0.938 | < 7.30 | 0.989 | < 6.70 | 0.733 | 6.24 | 0.788 | 5.36
MHH-CALL-2 (B-cell leukaemia, suspension) | 0.997 | < 5.00 | 0.481 | 8.55 | 0.857 | 7.00 | 0.989 | < 5.70 | 0.713 | 5.68
MHH-ES-1 (Ewing sarcoma, adherent) | 0.977 | < 5.00 | 0.279 | 9.13 | 0.738 | 7.23 | 0.756 | 6.17 | 0.602 | 5.92
MHH-PREB-1 (B-cell leukaemia, suspension) | 0.943 | < 5.00 | 0.716 | 7.93 | 0.447 | 8.04 | 0.96 | < 5.70 | 0.543 | 6.09
MKN7 (stomach, adherent) | 0.926 | < 5.00 | 0.925 | < 7.30 | 0.979 | < 6.70 | 0.983 | < 5.70 | 0.83 | 5.02
MLMA (hairy cell leukaemia, semi-adherent) | 0.773 | 5.40 | 0.628 | 8.15 | 0.842 | 6.84 | 0.977 | < 5.70 | 0.728 | 5.55
MMAC-SF (melanoma, adherent) | 0.066 | > 7.41 | 0.842 | 7.43 | 0.985 | < 6.70 | 0.985 | < 5.70 | 0.821 | 5.21
MN-60 (B-cell leukaemia, suspension) | 0.972 | < 5.00 | 0.839 | 7.44 | 0.988 | < 6.70 | 0.987 | < 5.70 | 0.78 | 5.37
MOG-G-CCM (glioma, adherent) | 0.975 | < 5.00 | 0.804 | 7.52 | 0.928 | < 6.70 | 0.919 | < 5.70 | 0.76 | 5.39
MOLM-16 (acute myeloid leukaemia, suspension) | 0.919 | < 5.00 | 0.533 | 8.42 | 0.924 | < 6.70 | 0.886 | 5.76 | 0.445 | 6.34
MOLT-16 (T-cell lymphoblastic leukaemia, suspension) | 0.5 | 6.20 | 0.234 | 9.19 | 0.439 | 8.05 | 0.899 | 5.79 | 0.459 | 6.30
MONO-MAC-6 (acute myeloid leukaemia, suspension) | 0.769 | 5.40 | 0.575 | 8.29 | 0.379 | 8.24 | 0.942 | < 5.70 | 0.493 | 6.22
MPP-89 (mesothelioma, adherent) | 0.971 | < 5.00 | 0.809 | 7.44 | 0.95 | < 6.70 | 0.957 | < 5.70 | 0.751 | 5.38
MRK-nu-1 (breast, suspension) | 0.989 | < 5.00 | 0.811 | 7.62 | 0.97 | < 6.70 | 0.974 | < 5.70 | 0.877 | 5.06
MS751 (cervix, adherent) | 0.989 | < 5.00 | 0.558 | 8.35 | 0.99 | < 6.70 | 0.951 | < 5.70 | 0.653 | 5.80
MS-1 (small cell lung carcinoma, suspension) | 0.99 | < 5.00 | 0.917 | < 7.30 | 0.607 | 7.62 | 0.977 | < 5.70 | 0.555 | 6.06
MZ1-PC (pancreas, adherent) | 0.612 | 5.86 | 0.569 | 8.30 | 0.979 | < 6.70 | 0.972 | < 5.70 | 0.892 | < 5.00
Mo-T (hairy cell leukaemia, suspension) | 0.976 | < 5.00 | 0.676 | 8.01 | 0.937 | < 6.70 | 0.93 | < 5.70 | 0.433 | 6.39
NB10 (neuroblastoma, adherent) | 0.971 | < 5.00 | 0.31 | 9.03 | 0.974 | < 6.70 | 0.788 | 6.07 | 0.548 | 6.08
NB12 (neuroblastoma, adherent) | 0.784 | 5.23 | 0.777 | 7.56 | 0.979 | < 6.70 | 0.953 | < 5.70 | 0.676 | 5.64
NB13 (neuroblastoma, adherent) | 0.97 | < 5.00 | 0.465 | 8.60 | 0.976 | < 6.70 | 0.955 | < 5.70 | 0.704 | 5.67
NB17 (neuroblastoma, adherent) | 0.982 | < 5.00 | 0.685 | 7.95 | 0.984 | < 6.70 | 0.939 | < 5.70 | 0.648 | 5.76
NB(TU)1-10 (neuroblastoma, adherent) | 0.993 | < 5.00 | 0.984 | < 7.30 | 0.985 | < 6.70 | 0.984 | < 5.70 | 0.761 | 5.51
NCC010 (kidney, adherent) | 0.907 | < 5.00 | 0.781 | 7.65 | 0.927 | < 6.70 | 0.956 | < 5.70 | 0.822 | 5.19
NCC021 (kidney, adherent) | 0.938 | < 5.00 | 0.733 | 7.79 | 0.985 | < 6.70 | 0.926 | < 5.70 | 0.767 | 5.36
